Data published in PMC4336329 (PLoS ONE, 2015).
Out of some 310,000 compounds screened, about 14,000 (4.5%) showed an effect of 50% or more. The effect is printed as a negative number. Some of the results follow.

Target: human ether-à-go-go-related gene (hERG) potassium channel (human, UniProt Q12809)
Experiment: primary screen, population patch clamp on CHO cells stably expressing hERG
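Also: peak tail current of the secondary pulse compared with the same well before compound.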

human ether-à-go-go-related gene (hERG) potassium channel, sequence (Q12809 whole entry, looked up): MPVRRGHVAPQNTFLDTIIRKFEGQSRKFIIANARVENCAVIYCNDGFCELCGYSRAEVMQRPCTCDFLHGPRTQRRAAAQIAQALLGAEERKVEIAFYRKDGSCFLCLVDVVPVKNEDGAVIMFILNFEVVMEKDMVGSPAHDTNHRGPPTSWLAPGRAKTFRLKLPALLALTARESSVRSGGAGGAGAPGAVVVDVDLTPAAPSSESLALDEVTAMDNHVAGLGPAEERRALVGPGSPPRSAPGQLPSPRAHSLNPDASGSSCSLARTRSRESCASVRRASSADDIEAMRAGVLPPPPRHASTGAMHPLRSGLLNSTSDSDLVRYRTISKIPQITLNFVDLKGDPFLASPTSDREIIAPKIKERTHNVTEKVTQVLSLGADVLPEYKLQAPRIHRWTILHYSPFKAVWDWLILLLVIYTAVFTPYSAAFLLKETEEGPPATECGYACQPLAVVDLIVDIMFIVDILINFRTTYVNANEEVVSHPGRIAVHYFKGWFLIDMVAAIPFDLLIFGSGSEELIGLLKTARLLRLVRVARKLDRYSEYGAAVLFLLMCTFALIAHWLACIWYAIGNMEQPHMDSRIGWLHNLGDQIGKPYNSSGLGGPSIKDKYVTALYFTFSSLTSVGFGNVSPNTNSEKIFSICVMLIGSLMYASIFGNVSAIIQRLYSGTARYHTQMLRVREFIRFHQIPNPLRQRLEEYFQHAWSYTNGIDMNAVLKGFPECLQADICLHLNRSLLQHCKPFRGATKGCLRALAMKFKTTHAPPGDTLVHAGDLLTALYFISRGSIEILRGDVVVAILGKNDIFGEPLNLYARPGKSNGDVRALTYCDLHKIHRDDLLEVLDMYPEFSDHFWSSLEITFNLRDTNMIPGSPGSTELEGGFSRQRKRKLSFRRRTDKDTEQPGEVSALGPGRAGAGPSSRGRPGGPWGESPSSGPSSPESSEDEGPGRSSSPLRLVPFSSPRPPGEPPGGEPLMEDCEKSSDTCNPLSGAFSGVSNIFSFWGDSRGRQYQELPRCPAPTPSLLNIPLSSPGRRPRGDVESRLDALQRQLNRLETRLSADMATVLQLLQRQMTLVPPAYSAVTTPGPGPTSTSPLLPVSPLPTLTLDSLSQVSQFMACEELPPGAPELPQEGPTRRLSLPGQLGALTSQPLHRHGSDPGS

SMILES	hERG current change (%, negative = inhibition) at 10uM [%]
O=C(/C=C/c1ccccc1Cl)OCC(=O)c1ccc[nH]1	7.85
CCOc1ccc(C2/C(=C(/O)c3ccc(OC)cc3)C(=O)C(=O)N2c2cc(C)on2)cc1OC (centres unmarked)	3.64
Cc1ccc(CNC(=O)C2CCN(c3nn4c(=O)cc(C)nc4s3)CC2)cc1	-41.9
O=C(/C=C/c1ccc(Br)cc1)c1ccc(NC2=NCCCS2)cc1	-1.51
O=C(/C=C/c1ccccc1)N1CCN(c2cccc(Cl)n2)CC1	-0.15
COc1ccc(C2=NCCn3nc4cc(OC)ccc4c32)cc1	-5.29
O=C1CCCC(=O)N1c1ccc(O)cc1	2.73
CNC(=O)NC(=O)CSc1cccc(C(F)(F)F)c1	2.56
CC(=O)Nc1ccc(N(C(=O)CNC(=O)c2cccs2)C(C(=O)NCC2CCCO2)c2ccccc2)cc1 (centres unmarked)	13.2
COC(=O)c1ccc(NCN2C(=O)C3C4CCC(C4)C3C2=O)cc1 (centres unmarked)	-12
CCCCn1c(SCC(=O)N2CCCc3ccccc32)nc2c1c(=O)n(C)c(=O)n2C	-47.6
O=C1c2cccnc2C(=O)N1CO	9.77
COc1ccc(/C=C/c2nnc(NC(=O)c3ccco3)s2)cc1	8.89
O=C(COC(=O)CCCOc1ccc(Cl)cc1Cl)NCc1ccccc1	4.2
NC(=S)N/N=C/c1ccc(C23CC4CC(CC(C4)C2)C3)cc1	23.2
Cc1ccc(N(C)C(=O)C2CCN(S(=O)(=O)c3ccc4c(c3)oc(=O)n4C)CC2)cc1	1.6
CC(C)C(=O)NC(=S)Nc1ccc(S(=O)(=O)N(C)C)cc1	-8.89
N#CCSC1=Nc2ccccc2C2=NC(CCC(=O)N3CCN(c4ccccc4)CC3)C(=O)N12 (centres unmarked)	-30.4
CCNC(=S)NNC(=O)CCn1cc(C)cn1	20.7
CC(C)N(Cc1ccccc1)C(=S)NCCN1CCOCC1	14.9
Cc1cc(C)c2c(C)c(C(=O)NCc3ccncc3)oc2c1	-7.22
O=C(O)CCc1ccc(-c2cccs2)n1CC1CCCO1 (centres unmarked)	-4.68

SMILES	hERG current change (%, negative = inhibition) at 10uM [%]
O=C(Cc1ccc(Br)cc1)N1CCN(c2ccccn2)CC1	-24.2
COC(=O)CC1=C(C(=O)OC)C(c2ccncc2)C(C#N)=C(N)O1 (centres unmarked)	1.19
CC1=C(C(=O)Nc2ccccc2)C(c2ccco2)C(C#N)=C(SCc2ccccc2)N1 (centres unmarked)	10.9
O=C(NCCNC(=O)c1ccco1)c1ccc(Cl)c(Cl)c1	-10.5
COc1ccc(/C=N/NC(=O)c2ccn[nH]2)cc1Cn1nc(C)c([N+](=O)[O-])c1C	13.8
Cc1c(C(=O)Nc2cccc(C(F)(F)F)c2)oc2ccc(S(=O)(=O)N3CCOCC3)cc12	-0.856
Cc1ccccc1OCC(=O)OCC(=O)Nc1ccc(N2CCOCC2)cc1	9.51
C/C(=N\NC(=S)Nc1ccc(C)cc1)c1cccc(N)c1	-24.7
O=C(O)Cc1coc(-c2ccc(F)cc2)n1	-0.918
CN(C)CCNC(C(=O)Nc1cccc(S(=O)(=O)N2CCOCC2)c1)c1ccccc1 (centres unmarked)	-70.3
Cn1c(Cn2cnc([N+](=O)[O-])n2)nnc1SCC(=O)Nc1ccccc1	1.69
CCN1CCN(Cc2ccc(NC(=O)c3ccc(C)c(/C=C/c4cnc(Nc5cc(N6CCNCC6)nc(C)n5)cn4)c3)cc2C(F)(F)F)CC1.O=C(O)C(F)(F)F	-7.18
Fc1ccc(C2=Nn3c(Cc4ccccc4)nnc3SC2)cc1	-21.7
COc1ccc(-c2cc3ccccc3n2CC(O)CN2CCN(CCO)CC2)cc1 (centres unmarked)	-29.9
Cc1nn(C(=O)c2cccs2)c(N)c1-c1ccccc1	3.51
CC1CCCCN1C(=O)CSc1nnc(-c2ccco2)n1CC1CCCO1 (centres unmarked)	3.72
C/C(=C\C(=O)OCC(=O)NCc1ccccc1)C(=O)OCC(=O)NCc1ccccc1	18.8
CCN1CCC[C@H]1CNC(=O)c1c(O)c(Cl)cc(Cl)c1OC	-10.4
O=C1CCN(C(=O)C(Cl)Cl)N1	10.6
O=C(NC1CCCCC1)c1cccc(S(=O)(=O)N2CCOCC2)c1	-4.59
COc1ccc(/C=C(\NC(=O)c2ccc(C)cc2)C(=O)Nc2c(C)n(C)n(-c3ccccc3)c2=O)cc1	-17.3
CCN(CC)C(=O)COc1coc(CN2CCN(Cc3ccccc3)CC2)cc1=O	-12

SMILES	hERG current change (%, negative = inhibition) at 10uM [%]
Cc1ccc(NC(=O)c2cc(-c3ccc(C)c(C)c3O)n[nH]2)cc1C	24.4
COCCCn1c(=O)c2sccc2n(Cc2cccc(C)c2)c1=O	-6.4
CCOc1ccccc1NC(=O)NCc1cccnc1	10.8
CCCC(=O)N1CCc2[nH]c3ccccc3c2C1	1.29
O=C(Cn1cnc2ccccc2c1=O)NCCC(=O)N1CCN(c2ccccc2)CC1	-7.6
COc1cc(CN(C(=O)c2cccs2)C2CCS(=O)(=O)C2)cc(OC)c1OC (centres unmarked)	7.79
c1ccc(-c2ccc(CN3C[C@@H]4C(c5ccccc5)C5(c6cccnc6)CC4(C5)[C@H]3c3ccccc3)cc2)cc1 (some centres unmarked)	0.0971
COc1ccccc1CNC(=O)C1COc2ccccc2O1 (centres unmarked)	-15.1
COc1ccc(N2C(=O)NC(NC(=O)c3ccncc3)(C(F)(F)F)C2=O)cc1 (centres unmarked)	-12.5
COc1ccc(/C=N\NC(=O)/C(=C\Nc2nccc(C)n2)NC(=O)c2ccccc2)cc1	-7.26
Cc1ccc(C(=O)Oc2ccc(Cl)c3cccnc23)cc1[N+](=O)[O-]	15.2
CC1(C)CC(=O)C2=C(C1)NC(=O)NC2c1ccc(Cl)cc1 (centres unmarked)	17.3
CCN(C(=O)COC(=O)/C=C/c1ccccc1[N+](=O)[O-])C1CCS(=O)(=O)C1 (centres unmarked)	2.47
CC12CCC(=O)N1C(C(=O)NCc1ccccc1F)CS2 (centres unmarked)	6.23
Cc1ccc(-n2cc(C(=O)c3ccc(F)cc3)nn2)cc1Cl	13
CCc1cc2c(cc3c(=O)n(CC(=O)NCCCN4CCCCCC4)nc(CC)n32)s1	-72.7
Cc1cc(C)c2c(N)c(C(=O)Nc3ncc(C)s3)sc2n1	0.941
C=CCNC(=O)/C(=C\c1ccco1)NC(=O)c1ccco1	26
C/C(=N\NC(=S)Nc1cccc(C)c1)c1cccc(N)c1	2.53
C/C=C(\C)C(=O)OC(C)(C)[C@H]1Cc2cc3ccc(=O)oc3cc2O1	-23.2
O=C(O)CC/C(=C\c1cccc(NC(=O)c2ccccc2Cl)c1)c1nc2ccccc2s1	-2.23
O=Cc1sc(=O)n(Cc2cccc(C(=O)O)c2)c1Cl	8.41

SMILES	hERG current change (%, negative = inhibition) at 10uM [%]
CC(C)Oc1ccc(CCc2n[nH]c(=S)n2Cc2ccccc2)cc1	14.8
OCC1(Cc2ccccc2)CCN(C2CCN(c3ccc(F)c(F)c3)CC2)CC1	-112
Cc1[nH]nc2c1C(c1ccsc1)C(C#N)=C(N)O2 (centres unmarked)	12.6
Cc1nnc(N2C(=O)C(O)=C(C(=O)c3ccco3)C2c2cccc3ccccc23)s1 (centres unmarked)	-0.387
CCOC(=O)CN(C)S(=O)(=O)c1ccc(-c2cc(C(=O)OC)sc2C(F)(F)F)cc1	2.27
Cc1ccc(/C=C2/SC(=S)N(CCCC(=O)Nc3cc([N+](=O)[O-])ccc3O)C2=O)cc1	13.1
O=C(Nc1cc(S(=O)(=O)N2CCCCC2)ccc1N1CCOCC1)c1cc(=O)[nH]c2ccccc12	10.7
Cc1noc(C)c1S(=O)(=O)N1CCCN(C(=O)/C=C/c2ccccc2F)CC1	-70.9
O=C1OC(Nc2ccc(F)cc2F)c2ccccc21 (centres unmarked)	1.38
Cc1ccc(-c2ccc(/C=N/n3cnnc3)o2)cc1Cl	-22.5
CNC(=S)N=Nc1c(O)[nH]c2ccccc12	2.34
Cc1ccccc1OCC(=O)O/N=C(\N)c1ccncc1	-2.52
Cc1cccc(C(=O)OCC(=O)NC(C)CCc2ccccc2)c1O (centres unmarked)	10
CC(CNc1ccc([N+](=O)[O-])cc1)NC(=O)c1ccccc1Br (centres unmarked)	-50.6
O=C(CSc1nc2c(cnn2-c2ccc(F)cc2)c(=O)[nH]1)N1CCOCC1	0.142
COc1cccc(/C=N/n2c(N)c(S(=O)(=O)c3cccs3)c3nc4ccccc4nc32)c1OC	10.5
O=C1CC(NS(=O)(=O)c2cccs2)CN1c1ccc(F)cc1 (centres unmarked)	4.25
CC(C)N(C)C(=O)c1ccc(OC2CCN(CCc3ccccc3)CC2)cc1	-40.8
CN1CCc2c(sc3nc(NN)n(-c4ccc(Cl)cc4)c(=O)c23)C1	14.6
CCNc1ccc(S(=O)(=O)N(C)C)cc1NCC(=O)Nc1ccc(F)c(Cl)c1	-4.33
